The other results are listed elsewhere or left out.
Columns and labels:
Test in all cases: glycan array binding signal (z-score within array); higher = stronger binding
Conditions in all cases: glycan notation: IUPAC condensed, linker removed
[1] = target: Gal(b1-4)GlcNAc(b1-6)GalNAc
Procedure, shortened: (§1)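 Negative Z-scores can be read as non-binding. The Z-score is calculated within each array and then averaged across arrays of one protein sequence at different concentrations or buffers and across linkers. Arrays, 3228 in all, were curated from the Consortium for Functional Glycomics database and kept only where the protein sequence was available.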

[2] = target: Gal(b1-4)GlcNAc(b1-6)[Gal(b1-3)]GalNAc
Procedure, shortened: as §1

[3] = target: Gal(b1-4)GlcNAc(b1-6)[Gal(b1-4)GlcNAc(b1-3)]GalNAc
Procedure, shortened: as §1

Gal(b1-4)GlcNAc6P = target: Gal(b1-4)GlcNAc6P
Procedure, shortened: as §1

Gal(b1-6)Gal = target: Gal(b1-6)Gal
Procedure, shortened: as §1

Gal3S(b1-3)GalNAc = target: Gal3S(b1-3)GalNAc
Procedure, shortened: as §1

Gal3S(b1-3)GlcNAc = target: Gal3S(b1-3)GlcNAc
Procedure, shortened: as §1

[4] = target: Gal3S(b1-3)[Fuc(a1-4)]GlcNAc
Procedure, shortened: as §1

Gal3S(b1-4)Glc = target: Gal3S(b1-4)Glc
Procedure, shortened: as §1

Gal3S(b1-4)Glc6S = target: Gal3S(b1-4)Glc6S
Procedure, shortened: as §1

Gal3S(b1-4)GlcNAc = target: Gal3S(b1-4)GlcNAc
Procedure, shortened: as §1

[5] = target: Gal3S(b1-4)[Fuc(a1-3)]Glc6S
Procedure, shortened: as §1

[6] = target: Gal3S(b1-4)[Fuc(a1-3)]GlcNAc
Procedure, shortened: as §1

[7] = target: Gal3S(b1-4)[Fuc(a1-3)]GlcNAc6S
Procedure, shortened: as §1

Gal3S4S(b1-4)GlcNAc = target: Gal3S4S(b1-4)GlcNAc
Procedure, shortened: as §1

Gal3S6S(b1-4)GlcNAc = target: Gal3S6S(b1-4)GlcNAc
Procedure, shortened: as §1

Gal3S6S(b1-4)GlcNAc6S = target: Gal3S6S(b1-4)GlcNAc6S
Procedure, shortened: as §1

Gal4S(b1-4)GlcNAc = target: Gal4S(b1-4)GlcNAc
Procedure, shortened: as §1

Gal4S6S(b1-4)GlcNAc = target: Gal4S6S(b1-4)GlcNAc
Procedure, shortened: as §1

Gal6P(b1-4)GlcNAc = target: Gal6P(b1-4)GlcNAc
Procedure, shortened: as §1

Gal6S(b1-3)GlcNAc = target: Gal6S(b1-3)GlcNAc
Procedure, shortened: as §1

Gal6S(b1-3)GlcNAc6S = target: Gal6S(b1-3)GlcNAc6S
Procedure, shortened: as §1

Gal6S(b1-4)Glc = target: Gal6S(b1-4)Glc
Procedure, shortened: as §1

Gal6S(b1-4)Glc6S = target: Gal6S(b1-4)Glc6S
Procedure, shortened: as §1

Gal6S(b1-4)GlcNAc = target: Gal6S(b1-4)GlcNAc
Procedure, shortened: as §1

Gal6S(b1-4)GlcNAc6S = target: Gal6S(b1-4)GlcNAc6S
Procedure, shortened: as §1

GalNAc(a1-3)Gal = target: GalNAc(a1-3)Gal
Procedure, shortened: as §1

GalNAc(a1-3)GalNAc = target: GalNAc(a1-3)GalNAc
Procedure, shortened: as §1

[8] = target: GalNAc(a1-3)GalNAc(b1-3)Gal(a1-4)Gal(b1-4)Glc
Procedure, shortened: as §1

[9] = target: GalNAc(a1-3)GalNAc(b1-3)Gal(a1-4)Gal(b1-4)GlcNAc
Procedure, shortened: as §1

GalNAc(b1-3)Gal = target: GalNAc(b1-3)Gal
Procedure, shortened: as §1

[10] = target: GalNAc(b1-3)Gal(a1-4)Gal(b1-4)GlcNAc
Procedure, shortened: as §1

[11] = target: GalNAc(b1-3)Gal(a1-4)Gal(b1-4)GlcNAc(b1-3)Gal(b1-4)Glc
Procedure, shortened: as §1

[12] = target: GalNAc(b1-3)Gal(a1-6)Gal(b1-4)Glc
Procedure, shortened: as §1

GalNAc(b1-3)GalNAc = target: GalNAc(b1-3)GalNAc
Procedure, shortened: as §1

GalNAc(b1-3)GlcNAc = target: GalNAc(b1-3)GlcNAc
Procedure, shortened: as §1

GalNAc(b1-4)Gal(b1-4)Glc = target: GalNAc(b1-4)Gal(b1-4)Glc
Procedure, shortened: as §1

GalNAc(b1-4)GlcNAc = target: GalNAc(b1-4)GlcNAc
Procedure, shortened: as §1

B1: PX14367A-bth-493-35-493 (Bacteroides thetaiotaomicron) (protein)
chain: VSSDQVAVAGNAERLFNGAWYNLFEYGTTYANIGYRALQCQDDMMASDVVSRPKYGFNSSYQFNDVAIPSDGRTSFAWYLIYKTIDNCNTAISIKGDSEELRQAQGQALALRAFCYLHLVQHYQFTYLKDKDAPCVPIYTEPTTSGTKPKGKSTVAQVYQQIFDDLNLAQDYLTNYVRKGDGQKFKPNTDVVNGLMARAYLLTGQWGEAAKAAEAARKGYSLMTTTAEYEGFNNISNKEWIWGSPQTLSQSDASYNFYYLDATYVGAYSSFMADPHLMDTFVKGDIRLPLFQWMREGYLGYKKFHMRSDDTADLVLMRSAEMYLIEAEAKVRDGVALDQAVAPLNTLRTARGVGNYDVTGKTKEQVIDEILMERRRELWGEGFGITDVLRNQKAVERMALSEDMQKTEVDCWQEGGSFAKRNPLGHWFLNFPDGKAFSANSSYYLYAIPEKEINANPNL
[1]
  glycan array binding signal (z-score): -0.262
[2]
  glycan array binding signal (z-score): -0.558
[3]
  glycan array binding signal (z-score): -0.382
Gal(b1-4)GlcNAc6P
  glycan array binding signal (z-score): -0.6
Gal(b1-6)Gal
  glycan array binding signal (z-score): -0.332
Gal3S(b1-3)GalNAc
  glycan array binding signal (z-score): -0.342
Gal3S(b1-3)GlcNAc
  glycan array binding signal (z-score): 0.011
[4]
  glycan array binding signal (z-score): -0.182
Gal3S(b1-4)Glc
  glycan array binding signal (z-score): -0.36
Gal3S(b1-4)Glc6S
  glycan array binding signal (z-score): -0.202
Gal3S(b1-4)GlcNAc
  glycan array binding signal (z-score): 0.035
[5]
  glycan array binding signal (z-score): -0.267
[6]
  glycan array binding signal (z-score): -0.177
[7]
  glycan array binding signal (z-score): 0.004
Gal3S4S(b1-4)GlcNAc
  glycan array binding signal (z-score): 0.161
Gal3S6S(b1-4)GlcNAc
  glycan array binding signal (z-score): -0.108
Gal3S6S(b1-4)GlcNAc6S
  glycan array binding signal (z-score): 0.726
Gal4S(b1-4)GlcNAc
  glycan array binding signal (z-score): 0.544
Gal4S6S(b1-4)GlcNAc
  glycan array binding signal (z-score): -0.34
Gal6P(b1-4)GlcNAc
  glycan array binding signal (z-score): -0.64
Gal6S(b1-3)GlcNAc
  glycan array binding signal (z-score): -0.007
Gal6S(b1-3)GlcNAc6S
  glycan array binding signal (z-score): 0.464
Gal6S(b1-4)Glc
  glycan array binding signal (z-score): 0.199
Gal6S(b1-4)Glc6S
  glycan array binding signal (z-score): 0.194
Gal6S(b1-4)GlcNAc
  glycan array binding signal (z-score): -0.466
Gal6S(b1-4)GlcNAc6S
  glycan array binding signal (z-score): -0.082
GalNAc(a1-3)Gal
  glycan array binding signal (z-score): 0.247
GalNAc(a1-3)GalNAc
  glycan array binding signal (z-score): -0.456
[8]
  glycan array binding signal (z-score): -0.292
[9]
  glycan array binding signal (z-score): -0.39
GalNAc(b1-3)Gal
  glycan array binding signal (z-score): 0.127
[10]
  glycan array binding signal (z-score): 4.2
[11]
  glycan array binding signal (z-score): -0.645
[12]
  glycan array binding signal (z-score): 0.556
GalNAc(b1-3)GalNAc
  glycan array binding signal (z-score): -0.542
GalNAc(b1-3)GlcNAc
  glycan array binding signal (z-score): 0.281
GalNAc(b1-4)Gal(b1-4)Glc
  glycan array binding signal (z-score): 0.188
GalNAc(b1-4)GlcNAc
  glycan array binding signal (z-score): 0.378
